# According to patent US11185532B2, “Methods of treating pruritus” (Clexio Biosciences Ltd., priority 2019, dated 2021):
# Target: T1, Adrenergic α1D (Homo sapiens, UniProt P25100)
# T1 sequence (P25100 1-572): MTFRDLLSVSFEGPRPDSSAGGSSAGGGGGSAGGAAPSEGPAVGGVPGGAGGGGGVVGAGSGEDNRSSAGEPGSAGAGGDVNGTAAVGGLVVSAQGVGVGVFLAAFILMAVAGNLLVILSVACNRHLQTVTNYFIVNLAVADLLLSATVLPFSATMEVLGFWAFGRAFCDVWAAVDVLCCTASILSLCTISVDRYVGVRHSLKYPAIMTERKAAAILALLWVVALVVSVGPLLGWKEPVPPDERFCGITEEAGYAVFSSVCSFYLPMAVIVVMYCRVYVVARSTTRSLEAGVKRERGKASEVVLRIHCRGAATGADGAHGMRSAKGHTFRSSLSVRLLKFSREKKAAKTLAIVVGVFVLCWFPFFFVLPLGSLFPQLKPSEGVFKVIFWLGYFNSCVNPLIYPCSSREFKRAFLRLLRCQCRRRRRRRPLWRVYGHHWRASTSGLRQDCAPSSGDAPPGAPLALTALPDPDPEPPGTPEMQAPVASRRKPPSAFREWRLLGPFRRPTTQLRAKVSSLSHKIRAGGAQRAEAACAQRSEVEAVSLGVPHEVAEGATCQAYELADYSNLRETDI
# Assay: biochemical
structure (smiles),measurement,value
Cc1cccc(Cc2c[nH]cn2)c1C [detomidine],inhibition at 10 µM,95%
